# Data published in PubChem BioAssay AID686978 (National Center for Advancing Translational Sciences (NCATS), 2013).
# In all, about 420,000 compounds went through this assay and about 64,000 (15%) were called active. Inconclusive results, whose numbers are uncertain, are shown with a selection of clear calls. Calls come from the whole dose curve; as a rule, active = well fitted inhibition curve with a large enough effect; inconclusive = small, poorly fitted or top-dose-only effect; inactive = flat fitted curve, though single readings scatter. No potency is given beside an inconclusive call; the fits are too rough.
# Assay: qHTS for Inhibitors of human tyrosyl-DNA phosphodiesterase 1 (TDP1): qHTS in cells in absence of CPT; note: nearly all actives have a fitted effect of over 55% in size
# Settings: DT40 Tdp1-/- hTDP1 cells, no CPT, ATP luminescence, 48 h; activity change, negative = growth inhibition: at 46.2 µM (top of the series) unless noted
# Summary of the method: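 Luminescent ATP content (CellTiter-Glo) served as the growth readout. Knockout chicken DT40 cells expressing human TDP1 were exposed to compounds without camptothecin for a minimum 48 hr at 37 °C.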
# % is set by controls: 0 for no effect and ±100 for the full control effect; potency is the fitted concentration of half-maximal effect; tags give direction and shape of the fitted curve.
Structure (SMILES),Potency,"activity change, negative = growth inhibition"
CCOc1cc(/C=N/O)cc(Br)c1OCc1ccc(Cl)cc1,"inconclusive [inhibitor, single point]",
C=CCOc1ccc(C(=O)/C=C2/C(=O)Nc3ccccc32)cc1,active: 13 µM,
Cc1cccc(OCCCn2ccnc2)c1,"inconclusive [inhibitor, single point]",
Cc1noc(C)c1CCC(=O)Nc1c(C(C)C)cccc1C(C)C,,inactive: -20.1%
O=C(c1cnccn1)N1CCC2(CCCN(c3cccc(-c4ccccc4)c3)C2)CC1,"inconclusive [inhibitor, single point]",
CCCc1cc(=O)[nH]c(Nc2ccc(N3CCCCC3)cc2)n1,"inconclusive [inhibitor, single point]",
CCOC(=O)C1=C(CSc2nc3c(cc2C#N)CN(C)CC3)OC(N)=C(C#N)C1c1ccc(F)cc1 (stereo unspecified),"inconclusive [inhibitor, single point]",
CCOc1cc(/C=C2\C(=O)N(CCC#N)N=C2C)ccc1OCC(N)=O,,inactive: -4.62%
CC1=NN(c2ccccc2C(=O)O)C(=O)C1N=Nc1ccccc1 (stereo unspecified),active: 20.6 µM,
CN(CC(=O)Nc1ccc(Cl)c(C(F)(F)F)c1)C(=O)c1cccc(N2C(=O)CCC2=O)c1,"inconclusive [inhibitor, single point]",
O=C(NCc1ccccc1)c1ccc2c(=O)[nH]c3c(C(=O)NCC4CCCO4)sc(=S)n3c2c1 (stereo unspecified),"inconclusive [inhibitor, partial curve]",
COc1ccc(C2=Nc3ccccc3N(C(=O)c3ccc4ncccc4c3)C2C(=O)NC(C)(C)C)cc1 (stereo unspecified),active: 23.1 µM,
COc1ccc(C2(O)CC3CCC(C2)N3c2nc(C)cc(C)c2C#N)cc1 (stereo unspecified),,inactive: -28.9%
COc1ccc(/C=C2/C(=O)N(c3c(F)c(F)c(F)c(F)c3F)N=C2C)cc1,"inconclusive [inhibitor, single point]",
CSCCC(NC(=O)c1ccc([N+](=O)[O-])cc1Cl)C(=O)OCC(=O)N(C)C (stereo unspecified),,inactive: -5.06%
Nc1cc(N)nc(SCC(=O)NCc2ccc3c(c2)OCO3)n1,,inactive: 1.76%
CC(=O)Nc1ccc(C2=NN(c3ccccc3)C(c3ccccc3)C2)cc1 (stereo unspecified),active: 23.1 µM,
Cc1nc2c(OCc3ccc(Cl)cc3)cccn2c1N(C)Cc1cccs1,"inconclusive [inhibitor, single point]",
Cc1cnc(C(=O)N2CCCC(N3CCN(c4ccccc4C)CC3)C2)cn1 (stereo unspecified),"inconclusive [inhibitor, single point]",
COc1ccc(-c2c[n+]3c4n2CCCCC4=C(c2ccccc2)C3)cc1,active: 5.17 µM,
COc1ccc(-n2c(=O)c(-c3cccs3)nc3cnc(N4CCNCC4)nc32)cc1,"inconclusive [inhibitor, single point]",
CCCCN(CCCC)CCNC(=O)CN1C(=O)CSc2ccc(S(=O)(=O)N3CCOCC3)cc21,"inconclusive [inhibitor, single point]",
CCn1c(C(=O)N2CCc3ccccc3C2)cc2sccc21,"inconclusive [inhibitor, single point]",
CCC(C)N(c1ccc(/C=C/c2ccnc3ccccc23)cc1)C(C)CC (stereo unspecified),active: 4.47 µM,

Structure (SMILES),Potency,"activity change, negative = growth inhibition"
O=C(Oc1ccc(-c2ccccc2)cc1)C1C2CCCCC21 (stereo unspecified),,inconclusive: -30.4% [inhibitor]
Cc1cccc(CNC(=O)c2sc(=O)n(Cc3c(C)cccc3C)c2C)c1,active: 23.1 µM,
COC(=O)c1ccccc1C(=O)c1cccc2ccccc12,"inconclusive [inhibitor, single point]",
N#C/C(=C\Nc1ccccn1)S(=O)(=O)c1ccc(Cl)cc1,"inconclusive [inhibitor, partial curve, poor fit]",
CC1(C(=O)NCC2CCCCC2)CCN1CCc1ccccc1 (stereo unspecified),"inconclusive [inhibitor, single point]",
Cc1noc(C)c1CSCC(=O)Oc1ccc(N(C)S(=O)(=O)c2ccccc2)cc1,,inactive: -9.68%
O=C(NCCN1C(=O)S/C(=C\c2ccc(OC(F)F)cc2)C1=O)c1cnccn1,active: 2.06 µM,
CCc1ccc(NC(=O)CN2CCc3ccccc3C2)cc1,"inconclusive [inhibitor, single point]",
Cc1ccc(CN(C(=O)C(F)(F)F)C(C(=O)NC2CCCCC2)c2ccco2)cc1 (stereo unspecified),"inconclusive [inhibitor, single point]",
CC(Nc1cc(N2CCN(C(=O)C(C)(C)C)CC2)ccc1[N+](=O)[O-])c1ccccc1 (stereo unspecified),active: 23.1 µM,
O=C(N/N=C/c1ccc(O)cc1)c1cc(-c2ccc3c(c2)OCO3)n[nH]1,,inactive: -26.9%
COc1ccc(NC(=O)c2c(C)oc3ccc(O)c(CN4CCN(Cc5ccccc5)CC4)c23)cc1Cl,active: 14.6 µM,
COc1ccc(C(CNC(=O)c2cccc(Br)c2)N2CCCC2)cc1 (stereo unspecified),"inconclusive [inhibitor, partial curve]",
Clc1ccc(-c2onc3c2CCCC3)cc1,,inconclusive: -30.1% [inhibitor]
Cc1cc(=O)oc2c1ccc1ccccc12,,inactive: 10.2%
OCCN(Cc1ccccn1)Cc1ccccn1,"inconclusive [inhibitor, single point]",
CC[C@@H](C)[C@H](CNC)NC[C@@H](Cc1cccc2ccccc12)NCCc1cccc(C(F)(F)F)c1,"inconclusive [inhibitor, single point]",
O=C(CSc1nncc(=O)[nH]1)NCc1ccccc1,"inconclusive [inhibitor, single point]",
Cc1cc(NC(=O)c2sc(Nc3ccc(F)c(Cl)c3)nc2N)no1,"inconclusive [inhibitor, single point]",
Cc1ccc(-n2nnnc2-c2cnn(-c3ccc(F)cc3)c2C(F)(F)F)cc1,"inconclusive [inhibitor, single point]",
CC(C)c1ccc(NC2CCCN(C(=O)c3cccs3)C2)cc1 (stereo unspecified),"inconclusive [inhibitor, single point]",
CCCOc1ccc(CNC(=O)c2ccc(C)c(-n3c(C)nc4cccnc43)c2)cc1,"inconclusive [inhibitor, single point]",
C/C=C1\C2C=C(C)C[C@@]1(N)c1ccc(=O)[nH]c1C2,,inactive: -0.642%
COc1cccc(NS(=O)(=O)c2c(C)cc(C)cc2C)c1,"inconclusive [inhibitor, single point]",

Structure (SMILES),Potency,"activity change, negative = growth inhibition"
Cc1oc2ncn(C)c(=O)c2c1C(=O)NCCCN1CCCCC1C (stereo unspecified),,inactive: -21.1%
O=c1ccc(S(=O)(=O)N2CCCC2)cn1Cc1nc(-c2ccccc2)no1,"inconclusive [inhibitor, single point]",
CC(=O)c1cccc(NC(=O)Nc2nnc(N3CCCC3)s2)c1,"inconclusive [inhibitor, partial curve]",
CCCCCCCCO,,inactive: 3.26%
CC(=O)c1cc(-c2ccc(F)cc2)n(CC(=O)NC2CCC(C)CC2)c1C (stereo unspecified),"inconclusive [inhibitor, single point]",
Cc1ccc2nnc(Cl)n2n1,,inconclusive: -9.51% [inhibitor]
Cc1ccc(/C=N/NC(=O)c2nnn(-c3nonc3N)c2CSc2ccccc2)cc1,,inactive: -12.2%
CC(C)COc1ccc(Cc2cnc(N)nc2N)cc1,"inconclusive [inhibitor, partial curve, poor fit]",
Cc1c(C(=O)NCc2cccc(C(F)(F)F)c2)sc(=O)n1Cc1ccc(S(=O)(=O)N(C)C)cc1,"inconclusive [inhibitor, single point]",
COc1cccc(CNC(=O)c2ccc3c(=O)n4nc(Nc5ccccc5)sc4nc3c2)c1,"inconclusive [inhibitor, partial curve]",
CCOC(=O)c1c(C)n(-c2ccccc2)c2ccc(OC(=O)c3cccc(C)c3)cc12,"inconclusive [inhibitor, single point]",
Cc1cccc(C)c1NC(=S)/C(=C(\[O-])c1cccs1)[n+]1ccccc1,"inconclusive [inhibitor, single point]",
Cc1ccccc1NC(=O)Cc1nc(COC(=O)c2ccc(Cl)c(S(N)(=O)=O)c2)cs1,"inconclusive [inhibitor, single point]",
O=C(COc1ccc([N+](=O)[O-])cc1Cl)Nn1cnnc1,,inactive: 2.52%
CCN(CC)C(=O)N1CCN(C)CC1,"inconclusive [inhibitor, single point]",
Cc1noc(C)c1C(=O)OC(C)C(=O)Nc1ccc([N+](=O)[O-])cc1C(F)(F)F (stereo unspecified),,inactive: 8.9%
CC1=C(C(=O)N2CCCCCC2)CC(CC(=O)NCC2CCCCC2)C(=O)N1Cc1ccc(F)cc1 (stereo unspecified),"inconclusive [inhibitor, single point]",
c1ccc2c(CCNc3ncnc4nc[nH]c34)cccc2c1,active: 18.4 µM,
CCCCNC(=S)NNC(=O)c1cccnc1,,inactive: -8.4%
COCCNC(=O)/C(C#N)=C1\N=C(N)c2ccccc21,"inconclusive [inhibitor, partial curve, poor fit]",
O=C(Nc1cccc(C(F)(F)F)c1)N1CC2CCCN2c2ccccc21 (stereo unspecified),"inconclusive [inhibitor, single point]",
Cc1cccc(NC(=O)Cn2nc3c4ccccc4n(Cc4ccccc4)cc-3c2=O)c1,"inconclusive [inhibitor, single point]",
O=C(c1cc(COc2ccc(F)cc2Cl)on1)N1CC[C@@H]2CCCC[C@H]2C1,"inconclusive [inhibitor, single point]",
